From article PMC4336329 (PLoS ONE, 2015) come the findings set out here.

Screen size: about 310,000 compounds; about 2,200 (0.71%) showed an effect of 50% or more. The effect is printed as a negative number. This is one part of the list.

The test deals with human ether-à-go-go-related gene (hERG) potassium channel (human, UniProt Q12809). The test is described as follows: primary screen, population patch clamp on CHO cells stably expressing hERG.
Sequence of human ether-à-go-go-related gene (hERG) potassium channel (Q12809 whole entry, looked up): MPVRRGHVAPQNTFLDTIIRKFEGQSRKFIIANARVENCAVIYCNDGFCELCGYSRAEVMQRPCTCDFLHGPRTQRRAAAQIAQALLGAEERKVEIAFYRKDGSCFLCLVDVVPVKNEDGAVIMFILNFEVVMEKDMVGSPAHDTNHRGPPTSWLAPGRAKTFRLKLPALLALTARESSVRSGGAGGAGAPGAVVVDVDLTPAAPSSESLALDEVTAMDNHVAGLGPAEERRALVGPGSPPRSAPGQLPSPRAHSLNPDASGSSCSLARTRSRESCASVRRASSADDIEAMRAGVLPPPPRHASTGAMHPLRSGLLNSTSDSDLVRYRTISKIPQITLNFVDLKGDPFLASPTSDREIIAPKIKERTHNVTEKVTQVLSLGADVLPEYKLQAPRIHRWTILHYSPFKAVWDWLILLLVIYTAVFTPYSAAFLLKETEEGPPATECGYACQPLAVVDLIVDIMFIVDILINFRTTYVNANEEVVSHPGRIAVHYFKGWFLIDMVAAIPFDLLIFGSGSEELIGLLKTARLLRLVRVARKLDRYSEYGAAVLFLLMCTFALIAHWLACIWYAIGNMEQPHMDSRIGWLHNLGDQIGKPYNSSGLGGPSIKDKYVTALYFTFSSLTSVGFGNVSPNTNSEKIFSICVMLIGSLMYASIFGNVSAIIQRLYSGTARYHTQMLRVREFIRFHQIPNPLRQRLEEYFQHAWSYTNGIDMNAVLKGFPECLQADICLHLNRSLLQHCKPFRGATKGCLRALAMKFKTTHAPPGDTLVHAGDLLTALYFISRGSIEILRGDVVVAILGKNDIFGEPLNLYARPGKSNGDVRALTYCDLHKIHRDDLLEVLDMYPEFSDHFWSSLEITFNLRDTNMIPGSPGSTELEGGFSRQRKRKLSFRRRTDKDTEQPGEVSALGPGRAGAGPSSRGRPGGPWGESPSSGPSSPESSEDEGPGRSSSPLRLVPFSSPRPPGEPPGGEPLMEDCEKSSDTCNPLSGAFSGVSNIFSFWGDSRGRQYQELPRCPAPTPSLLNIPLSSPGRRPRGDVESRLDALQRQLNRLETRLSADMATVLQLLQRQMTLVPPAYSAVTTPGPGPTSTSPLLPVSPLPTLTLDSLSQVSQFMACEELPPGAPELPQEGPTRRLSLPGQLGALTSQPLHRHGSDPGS
Turning to `CCCN(CCC)CCCNC(=O)CN1C(=O)CSc2ccc(S(=O)(=O)N3CCOCC3)cc21`, the “hERG current change (%, negative = inhibition) at 1uM” value worked out at 10.4%.

As for `O=C(Nc1ccccc1-c1ccccc1)c1ccco1`, the “hERG current change (%, negative = inhibition) at 1uM” value worked out at 12.3%.

With `CC(Oc1ccc(F)cc1)C(=O)Nc1cccc(-c2nn[nH]n2)c1` (stereo not drawn), the “hERG current change (%, negative = inhibition) at 1uM” value is 10.5%.

Consider `COc1ccc(Cn2c(=O)oc3ccc(C)cc32)cc1`, for which the “hERG current change (%, negative = inhibition) at 1uM” value is on record as 3.8%.

With `CC1CCN(CCCNC(=O)c2cc3c(Cl)nc4ccccc4c3s2)CC1`, the “hERG current change (%, negative = inhibition) at 1uM” value is given as -31.9%.

`O=C(O)C(=O)O.O=C(c1ccc(F)cc1)N1CCN(C2CC3CCC2C3)CC1` (stereo not drawn): the “hERG current change (%, negative = inhibition) at 1uM” value was found to be 8.97%.

`Cc1ccccc1Cn1cnc2c(NS(C)(=O)=O)c(C)c(C)cc21`: the “hERG current change (%, negative = inhibition) at 1uM” value worked out at 13.2%.

As to `C[C@@H](C(=O)Nc1ccc2ccccc2c1)[C@H]1C[C@]1(C)[C@H](NS(=O)(=O)c1ccccc1)c1ccccc1`, the “hERG current change (%, negative = inhibition) at 1uM” value turned out to be 6.27%.

For the compound `O=C(CN1CCN(c2ccccc2F)CC1)NCc1ccc(Cl)cc1`, the “hERG current change (%, negative = inhibition) at 1uM” value is given as 4.4%.

For `CCOC(=O)C1=C(COC(=O)c2sccc2C)NC(=O)NC1C` (stereo not drawn), the “hERG current change (%, negative = inhibition) at 1uM” value was 5.76%.

Regarding `CCOC(=O)Cn1c2ccc(F)cc2c2nc(C)sc21`, the “hERG current change (%, negative = inhibition) at 1uM” value is listed as 1.71%.

In the case of `O=C(OCC#CCSc1nnc(-c2ccc(Br)cc2)o1)c1ccco1`, the “hERG current change (%, negative = inhibition) at 1uM” value was determined as 14.4%.

On to `CCCOC(=O)c1c(NC(=O)CCC(=O)O)sc2c1CCCCC2`, for which the “hERG current change (%, negative = inhibition) at 1uM” value turned out to be 4.76%.

`CCCCC[C@H]1CN(Cc2ccccc2)C(=O)[C@@H]1CC(=O)NCc1ccc(OC)cc1`: the “hERG current change (%, negative = inhibition) at 1uM” value is listed as -19.4%.

Turning to `Cc1ccc(NS(=O)(=O)c2cc(C(=O)Nc3cccnc3)ccc2C)cc1`, the “hERG current change (%, negative = inhibition) at 1uM” value is on record as 8.01%.

As to `O=c1ncc(F)c[nH]1`, the “hERG current change (%, negative = inhibition) at 1uM” value was 14%.

For the compound `CC1(c2ccc3c(c2)OCO3)NC(=O)N(CC(=O)c2ccc[nH]2)C1=O` (stereo not drawn), the “hERG current change (%, negative = inhibition) at 1uM” value is recorded as 10.2%.

Turning to `Cc1ccc2c(n1)sc1c(-c3ccccc3)c(C#N)c(N)nc12`, the “hERG current change (%, negative = inhibition) at 1uM” value amounted to 6.13%.

In the case of `Cn1c(NC(=S)Nc2ccccc2)nc2ccccc21`, the “hERG current change (%, negative = inhibition) at 1uM” value worked out at 9.88%.

On to `O=C(Nc1nc(-c2ccccc2)cs1)c1cccc([N+](=O)[O-])c1C(=O)O`, for which the “hERG current change (%, negative = inhibition) at 1uM” value is -4.94%.

Consider `CCc1nnc(NC(=O)CCC(=O)N2CCN(Cc3ccccc3)CC2)s1`, for which the “hERG current change (%, negative = inhibition) at 1uM” value stood at 17.3%.

`O=C(NCCCn1cccn1)C1CCC(=O)N(CCc2ccccc2)C1` (stereo not drawn): the “hERG current change (%, negative = inhibition) at 1uM” value is on record as 2.8%.

For `Cc1nc(C(=O)N2CCc3c([nH]c4ccccc34)C2c2cc(F)ccc2F)cs1` (stereo not drawn), the “hERG current change (%, negative = inhibition) at 1uM” value amounted to 10.2%.

As to `Cc1ccccc1N(C(=O)c1snc(C(N)=O)c1N)C(C(=O)NCC1CCCO1)c1ccc(N(C)C)cc1` (stereo not drawn), the “hERG current change (%, negative = inhibition) at 1uM” value was 9.28%.
